From article PMC5663475, “SAV1 promotes Hippo kinase activation through antagonizing the PP2A phosphatase STRIPAK” (eLife, 2017)
These are yes or no findings as the source states them, for the method shown. For part of these data: In cells and extracts the contact can be indirect. Some results given as binding are weak or reduced against the parent protein; the word gives no strength. Sequences can lack the tags named with a protein. One block for each molecule: values may come before it.

Amino acid sequences for entries named in this document (tags omitted).
UniProt Q5VSL9: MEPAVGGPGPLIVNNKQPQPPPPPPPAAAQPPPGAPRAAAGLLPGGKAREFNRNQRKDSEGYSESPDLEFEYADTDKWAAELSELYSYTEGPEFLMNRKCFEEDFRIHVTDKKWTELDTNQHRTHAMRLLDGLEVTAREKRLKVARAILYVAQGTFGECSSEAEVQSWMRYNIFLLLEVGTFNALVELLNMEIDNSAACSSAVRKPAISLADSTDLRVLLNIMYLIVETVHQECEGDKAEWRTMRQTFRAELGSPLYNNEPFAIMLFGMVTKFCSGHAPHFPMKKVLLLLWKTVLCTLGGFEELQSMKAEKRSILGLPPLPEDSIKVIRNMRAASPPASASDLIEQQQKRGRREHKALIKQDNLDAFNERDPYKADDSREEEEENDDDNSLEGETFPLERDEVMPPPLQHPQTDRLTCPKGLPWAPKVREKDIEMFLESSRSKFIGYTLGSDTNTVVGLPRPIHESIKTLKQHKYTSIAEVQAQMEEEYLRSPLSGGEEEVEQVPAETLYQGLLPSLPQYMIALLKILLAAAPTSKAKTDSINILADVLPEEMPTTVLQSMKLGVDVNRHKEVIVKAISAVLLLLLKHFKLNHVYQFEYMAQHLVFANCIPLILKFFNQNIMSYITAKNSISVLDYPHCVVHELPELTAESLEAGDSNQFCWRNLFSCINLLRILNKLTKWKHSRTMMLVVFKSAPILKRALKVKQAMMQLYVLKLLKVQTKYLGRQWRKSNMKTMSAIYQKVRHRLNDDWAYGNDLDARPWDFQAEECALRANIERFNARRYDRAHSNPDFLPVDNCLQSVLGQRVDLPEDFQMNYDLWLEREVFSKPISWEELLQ

Tests used:
HA-MST2 (human) = molecular target: T1, HA-MST2 (human) (UniProt Q13188); assay: co-IP; anti-FLAG IP from 293FT cells co-transfected with FLAG-SLMAP and HA-MST2, with or without Myc-SAV1 overexpression
T1 sequence: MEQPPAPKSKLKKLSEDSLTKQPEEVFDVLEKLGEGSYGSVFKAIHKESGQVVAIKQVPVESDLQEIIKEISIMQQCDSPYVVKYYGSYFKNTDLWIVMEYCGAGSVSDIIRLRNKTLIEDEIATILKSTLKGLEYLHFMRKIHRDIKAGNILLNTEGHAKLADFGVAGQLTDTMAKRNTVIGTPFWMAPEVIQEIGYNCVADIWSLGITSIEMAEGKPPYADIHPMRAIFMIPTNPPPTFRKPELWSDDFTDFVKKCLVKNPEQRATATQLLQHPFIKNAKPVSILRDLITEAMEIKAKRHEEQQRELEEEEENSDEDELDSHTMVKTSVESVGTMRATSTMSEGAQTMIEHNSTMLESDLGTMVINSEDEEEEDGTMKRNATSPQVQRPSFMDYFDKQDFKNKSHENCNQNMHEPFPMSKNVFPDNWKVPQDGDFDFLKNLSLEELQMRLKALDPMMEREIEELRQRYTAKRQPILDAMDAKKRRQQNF

[1] = molecular target: T2, GST-SLMAP FHA (residues 1–140) (human) (UniProt Q14BN4); assay: pull-down; GST-SLMAP FHA on glutathione-Sepharose beads as bait, purified MST2 proteins in TBS (50 mM Tris pH 7.5, 150 mM NaCl) with 0.05% Tween, 2 h; Coomassie-stained gel; both purified
T2 sequence: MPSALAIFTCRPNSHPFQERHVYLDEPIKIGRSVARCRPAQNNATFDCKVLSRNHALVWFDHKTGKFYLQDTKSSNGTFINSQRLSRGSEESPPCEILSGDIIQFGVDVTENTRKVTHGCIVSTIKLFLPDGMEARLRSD

FLAG-MST2 WT (human) = molecular target: T3, FLAG-MST2 WT (human) (UniProt Q13188); assay: co-IP; anti-FLAG IP from lysates of 293FT cells transfected with FLAG-MST2 plasmids; endogenous SLMAP detected by anti-SLMAP blot
T3 sequence: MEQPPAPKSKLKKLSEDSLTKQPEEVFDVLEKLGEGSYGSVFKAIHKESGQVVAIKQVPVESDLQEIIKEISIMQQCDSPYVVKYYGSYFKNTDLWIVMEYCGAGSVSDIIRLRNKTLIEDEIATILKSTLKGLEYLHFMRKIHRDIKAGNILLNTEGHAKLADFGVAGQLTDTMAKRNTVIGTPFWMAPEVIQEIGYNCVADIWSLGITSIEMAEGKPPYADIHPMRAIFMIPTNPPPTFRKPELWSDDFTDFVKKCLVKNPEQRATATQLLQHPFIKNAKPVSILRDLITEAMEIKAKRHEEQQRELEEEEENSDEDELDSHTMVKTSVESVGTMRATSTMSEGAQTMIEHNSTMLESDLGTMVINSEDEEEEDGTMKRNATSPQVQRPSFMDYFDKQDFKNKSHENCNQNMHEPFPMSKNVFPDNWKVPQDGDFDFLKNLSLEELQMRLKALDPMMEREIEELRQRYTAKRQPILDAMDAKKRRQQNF

FLAG-MST2 T180A (human) = molecular target: T4, FLAG-MST2 T180A (human) (UniProt Q13188); assay: as above
T4 sequence: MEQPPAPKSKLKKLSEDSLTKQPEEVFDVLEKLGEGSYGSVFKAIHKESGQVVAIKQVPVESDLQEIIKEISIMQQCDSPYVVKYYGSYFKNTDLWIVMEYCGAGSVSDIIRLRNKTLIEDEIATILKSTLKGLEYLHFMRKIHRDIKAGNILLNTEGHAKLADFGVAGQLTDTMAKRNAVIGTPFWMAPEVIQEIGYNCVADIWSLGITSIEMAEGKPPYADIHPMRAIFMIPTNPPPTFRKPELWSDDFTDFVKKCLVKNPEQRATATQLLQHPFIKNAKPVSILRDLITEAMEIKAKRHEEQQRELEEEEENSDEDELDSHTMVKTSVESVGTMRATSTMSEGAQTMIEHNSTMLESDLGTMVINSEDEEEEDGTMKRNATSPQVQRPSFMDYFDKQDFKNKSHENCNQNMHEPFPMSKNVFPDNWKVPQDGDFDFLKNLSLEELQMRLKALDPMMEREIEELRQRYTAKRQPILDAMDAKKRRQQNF

FLAG-MST2 3TA (human) = molecular target: T5, FLAG-MST2 3TA (human) (UniProt Q13188); assay: as above
T5 sequence: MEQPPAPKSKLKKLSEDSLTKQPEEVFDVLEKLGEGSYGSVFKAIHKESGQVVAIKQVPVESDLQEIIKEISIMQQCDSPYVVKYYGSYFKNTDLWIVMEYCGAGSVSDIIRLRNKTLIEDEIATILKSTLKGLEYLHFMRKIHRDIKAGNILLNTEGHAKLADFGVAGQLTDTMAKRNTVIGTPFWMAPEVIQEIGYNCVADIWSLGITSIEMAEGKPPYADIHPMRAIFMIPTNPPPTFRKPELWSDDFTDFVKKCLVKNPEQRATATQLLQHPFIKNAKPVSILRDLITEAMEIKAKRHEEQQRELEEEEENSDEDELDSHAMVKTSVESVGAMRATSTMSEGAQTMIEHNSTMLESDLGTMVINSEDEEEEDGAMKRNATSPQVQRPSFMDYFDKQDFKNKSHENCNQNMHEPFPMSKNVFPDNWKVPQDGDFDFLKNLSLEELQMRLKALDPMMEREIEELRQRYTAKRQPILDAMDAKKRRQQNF

[2] = molecular target: T6, FLAG-SAV1 1–90 fragment (human) (UniProt Q9H4B6); assay: co-IP; anti-FLAG IP from lysates of 293FT cells (control or SLMAP KO) transfected with FLAG-SAV1 fragments; endogenous partners detected by blot
T6 sequence: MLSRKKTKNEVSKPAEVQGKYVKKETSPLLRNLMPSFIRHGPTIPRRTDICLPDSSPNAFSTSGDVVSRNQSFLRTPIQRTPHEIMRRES

binding (HA-MST2 (human)): binds
Molecule: STRIP1 (from UniProt Q5VSL9 1-837)

binding [1]: no binding
B1: MST2-KD (MST2 kinase domain) (domain or fragment, UniProt Q13188 16-313)
chain: EDSLTKQPEEVFDVLEKLGEGSYGSVFKAIHKESGQVVAIKQVPVESDLQEIIKEISIMQQCDSPYVVKYYGSYFKNTDLWIVMEYCGAGSVSDIIRLRNKTLIEDEIATILKSTLKGLEYLHFMRKIHRDIKAGNILLNTEGHAKLADFGVAGQLTDTMAKRNTVIGTPFWMAPEVIQEIGYNCVADIWSLGITSIEMAEGKPPYADIHPMRAIFMIPTNPPPTFRKPELWSDDFTDFVKKCLVKNPEQRATATQLLQHPFIKNAKPVSILRDLITEAMEIKAKRHEEQQRELEEEE

binding (FLAG-MST2 WT (human)): binds
binding (FLAG-MST2 T180A (human)): no binding
binding (FLAG-MST2 3TA (human)): no binding
binding [2]: no binding
B2: endogenous SLMAP (protein, UniProt Q14BN4 1-828)
chain: MPSALAIFTCRPNSHPFQERHVYLDEPIKIGRSVARCRPAQNNATFDCKVLSRNHALVWFDHKTGKFYLQDTKSSNGTFINSQRLSRGSEESPPCEILSGDIIQFGVDVTENTRKVTHGCIVSTIKLFLPDGMEARLRSDVIHAPLPSPVDKVAANTPSMYSQELFQLSQYLQEALHREQMLEQKLATLQRLLAITQEASDTSWQALIDEDRLLSRLEVMGNQLQACSKNQTEDSLRKELIALQEDKHNYETTAKESLRRVLQEKIEVVRKLSEVERSLSNTEDECTHLKEMNERTQEELRELANKYNGAVNEIKDLSDKLKVAEGKQEEIQQKGQAEKKELQHKIDEMEEKEQELQAKIEALQADNDFTNERLTALQVRLEHLQEKTLKECSSLEHLLSKSGGDCTFIHQFIECQKKLIVEGHLTKAVEETKLSKENQTRAKESDFSDTLSPSKEKSSDDTTDAQMDEQDLNEPLAKVSLLKDDLQGAQSEIEAKQEIQHLRKELIEAQELARTSKQKCFELQALLEEERKAYRNQVEESTKQIQVLQAQLQRLHIDTENLREEKDSEITSTRDELLSARDEILLLHQAAAKVASERDTDIASLQEELKKVRAELERWRKAASEYEKEITSLQNSFQLRCQQCEDQQREEATRLQGELEKLRKEWNALETECHSLKRENVLLSSELQRQEKELHNSQKQSLELTSDLSILQMSRKELENQVGSLKEQHLRDSADLKTLLSKAENQAKDVQKEYEKTQTVLSELKLKFEMTEQEKQSITDELKQCKNNLKLLREKGNNKPWPWMPMLAALVAVTAIVLYVPGLARASP
